Measured values reported in the supplement of paper PMC3334620.
Over roughly 33,000 sequences, “E-score (-0.5 to 0.5)” has its median near -0.053; the highest 2% begin near 0.37. Some of the results follow.

What follows are sequences tested against Hap1 (UniProt P0CE41) (assay: PBM E-score (8-mer binding enrichment) (E-score (-0.5 to 0.5)); higher = stronger / more preferred TF binding; most listed sequences are background and not binding sites). Conditions: protein concentration: 200 nM; construct: GST-DNA-binding domain.
Outline: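 Universal all-10-mer Agilent arrays, fresh or stripped once, were converted to double-stranded form by primer extension. GST-tagged yeast transcription factors from PURExpress in vitro transcription/translation, full-length or DNA-binding domain only, were applied at about 100-200 nM and detected with fluorescent anti-GST. After masliner normalisation, the Universal PBM Analysis Suite scored each ungapped eight-base word together with its reverse complement by E-score.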

Sequence of UniProt P0CE41 (P0CE41 whole entry, the tested form may be a part): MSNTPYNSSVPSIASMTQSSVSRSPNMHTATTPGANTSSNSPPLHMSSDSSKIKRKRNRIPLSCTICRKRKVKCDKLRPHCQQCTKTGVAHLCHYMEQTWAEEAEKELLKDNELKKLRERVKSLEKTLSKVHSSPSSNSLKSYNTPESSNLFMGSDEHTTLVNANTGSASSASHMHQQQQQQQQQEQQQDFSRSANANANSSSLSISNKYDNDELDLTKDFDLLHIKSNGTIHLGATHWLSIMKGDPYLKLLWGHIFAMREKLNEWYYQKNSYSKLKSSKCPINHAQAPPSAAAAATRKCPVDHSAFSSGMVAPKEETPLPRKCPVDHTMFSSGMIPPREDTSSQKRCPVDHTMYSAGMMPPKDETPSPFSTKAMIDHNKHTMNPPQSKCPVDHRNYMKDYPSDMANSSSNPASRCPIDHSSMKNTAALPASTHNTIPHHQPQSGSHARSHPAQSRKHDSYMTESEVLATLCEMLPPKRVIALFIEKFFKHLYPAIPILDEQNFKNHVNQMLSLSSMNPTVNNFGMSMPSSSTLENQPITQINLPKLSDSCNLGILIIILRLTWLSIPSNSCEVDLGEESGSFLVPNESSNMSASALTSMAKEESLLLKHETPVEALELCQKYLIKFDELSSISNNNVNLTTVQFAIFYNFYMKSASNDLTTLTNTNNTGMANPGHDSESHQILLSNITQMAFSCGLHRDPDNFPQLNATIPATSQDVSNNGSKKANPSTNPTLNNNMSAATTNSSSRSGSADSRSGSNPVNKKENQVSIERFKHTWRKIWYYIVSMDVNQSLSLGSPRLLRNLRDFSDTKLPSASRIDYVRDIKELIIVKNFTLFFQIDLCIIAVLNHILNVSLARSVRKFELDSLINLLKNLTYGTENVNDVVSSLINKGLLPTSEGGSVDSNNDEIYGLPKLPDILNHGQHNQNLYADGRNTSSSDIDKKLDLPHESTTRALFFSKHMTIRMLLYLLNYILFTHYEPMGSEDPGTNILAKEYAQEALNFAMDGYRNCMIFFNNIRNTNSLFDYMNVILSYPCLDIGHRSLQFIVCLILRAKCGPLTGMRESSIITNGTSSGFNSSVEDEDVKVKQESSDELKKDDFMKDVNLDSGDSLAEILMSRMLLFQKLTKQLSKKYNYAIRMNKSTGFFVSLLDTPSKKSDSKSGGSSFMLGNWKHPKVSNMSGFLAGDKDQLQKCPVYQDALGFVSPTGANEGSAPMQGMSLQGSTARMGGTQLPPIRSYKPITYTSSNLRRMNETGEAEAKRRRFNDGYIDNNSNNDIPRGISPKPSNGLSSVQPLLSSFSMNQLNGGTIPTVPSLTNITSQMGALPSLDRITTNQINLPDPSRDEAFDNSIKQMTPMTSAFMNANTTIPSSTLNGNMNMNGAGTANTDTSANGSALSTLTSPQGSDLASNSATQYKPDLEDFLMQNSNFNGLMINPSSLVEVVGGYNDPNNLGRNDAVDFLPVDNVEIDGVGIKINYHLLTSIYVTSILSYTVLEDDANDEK

First: AGCAGTGA
Second: AACTGTCT
The “PBM E-score” value of the first is higher: 0.0848 for the first, -0.106 for the second.

Compared with CCGTTTAG, ATGGTGGA is lower in “PBM E-score” value: 0.166 for the first, -0.136 for the second.

Compared with GCTGGTCA, ATATGCAG is higher in “PBM E-score” value: -0.193 for the first, -0.187 for the second.

Compared with AAGCGTTA, ATTTAGAG is lower in “PBM E-score” value: 0.0381 for the first, -0.00094 for the second.

Compared with GCCCTTCC, CAATTTGC is lower in “PBM E-score” value: -0.0887 for the first, -0.103 for the second.

Compared with ACCTCAGT, AGTGAGTC is lower in “PBM E-score” value: -0.139 for the first, -0.18 for the second.

Going from GTAGCAGA to CCCCCAAC, the “PBM E-score” value falls from -0.141 to -0.276.

Compared with ACCCCGCG, AAGGAAGC is lower in “PBM E-score” value: 0.209 for the first, -0.199 for the second.

Compared with TAGAACCA, GACGCCAC is higher in “PBM E-score” value: -0.217 for the first, -0.0231 for the second.

First: ATCGGACC
Second: GTGCTGGA
The “PBM E-score” value of the first is higher: 0.4 for the first, -0.0951 for the second.

Going from CTAGATGA to CAGGCACA, the “PBM E-score” value falls from -0.146 to -0.192.

First: AGAGGTGC
Second: GTAATAAC
The “PBM E-score” value of the first is lower: -0.149 for the first, 0.00686 for the second.

Going from GAGGTTTA to ACGCTAAC, the “PBM E-score” value falls from -0.0325 to -0.165.

Compared with GCGACCGC, ATGCCGGC is higher in “PBM E-score” value: 0.173 for the first, 0.287 for the second.

First: GCAAGATA
Second: CCTGTGGA
The “PBM E-score” value of the first is higher: -0.0876 for the first, -0.336 for the second.

Compared with AGGTCCTA, GCTTGGTA is lower in “PBM E-score” value: -0.134 for the first, -0.227 for the second.

First: CATGGTAC
Second: GGATGGGA
The “PBM E-score” value of the first is lower: -0.135 for the first, -0.0996 for the second.

Compared with AAAAGCCA, CCCGCAGG is higher in “PBM E-score” value: 0.121 for the first, 0.179 for the second.

First: TAGTACAA
Second: CCCGTGAG
The “PBM E-score” value of the first is lower: -0.229 for the first, -0.0169 for the second.

Going from CACTTCTA to AAGAACGA, the “PBM E-score” value falls from -0.00161 to -0.057.

First: CTGATCAC
Second: CATCGGGG
The “PBM E-score” value of the first is lower: -0.242 for the first, 0.277 for the second.

First: AAAGGCTG
Second: CGCACTTA
The “PBM E-score” value of the first is lower: -0.0944 for the first, 0.256 for the second.

Going from TCGGTACA to ACGTCAGG, the “PBM E-score” value falls from 0.126 to -0.135.

Compared with ATGTAGTC, CACTACAG is higher in “PBM E-score” value: -0.174 for the first, -0.167 for the second.

Compared with CGGAGTAC, GGTAACCA is lower in “PBM E-score” value: 0.254 for the first, -0.18 for the second.

Compared with GCTTTGAA, TGATCCCA is higher in “PBM E-score” value: -0.101 for the first, -0.0926 for the second.

Compared with CGTGGAAC, ATTGTGGA is lower in “PBM E-score” value: 0.0436 for the first, -0.186 for the second.

Going from ACGTGAAC to CAGATGCC, the “PBM E-score” value falls from -0.112 to -0.153.

Going from CCATTCAG to GACGGGGA, the “PBM E-score” value rises from -0.0732 to 0.213.

Going from CGCGGGCC to AGCGTACC, the “PBM E-score” value falls from 0.178 to 0.0072.

Compared with CCCGAATC, TCGCCTCA is lower in “PBM E-score” value: 0.305 for the first, -0.028 for the second.

First: GTATGCGA
Second: CTCCGTTA
The “PBM E-score” value of the first is lower: -0.0349 for the first, 0.367 for the second.

Going from AATCAATC to GATGTTAA, the “PBM E-score” value falls from 0.0358 to -0.0711.

First: ACAGATAA
Second: ACGTGTAA
The “PBM E-score” value of the first is higher: -0.148 for the first, -0.213 for the second.

First: AAGCGCAG
Second: CAAGGACC
The “PBM E-score” value of the first is higher: 0.0743 for the first, -0.13 for the second.

First: ATCCTCCC
Second: AGGCGGGG
The “PBM E-score” value of the first is lower: 0.0165 for the first, 0.102 for the second.

First: CATTACCA
Second: TCTCTCCA
The “PBM E-score” value of the first is higher: -0.0444 for the first, -0.0861 for the second.

Going from TCCCAGAA to CCTTACTA, the “PBM E-score” value rises from -0.161 to -0.00885.

Going from ACACTGTA to ATTATTTA, the “PBM E-score” value rises from -0.242 to 0.0822.

First: ATATTCGA
Second: GGCGCGAC
The “PBM E-score” value of the first is lower: 0.0739 for the first, 0.205 for the second.

First: AGAAAGTA
Second: CCGTGCAC
The “PBM E-score” value of the first is lower: -0.191 for the first, 0.0554 for the second.

Compared with AAATGCCA, ACGTCAAG is lower in “PBM E-score” value: -0.094 for the first, -0.271 for the second.

Compared with AAGGCACA, GGTCATAA is higher in “PBM E-score” value: -0.253 for the first, 0.313 for the second.

Compared with CCTCCCCC, AGTGCCCC is higher in “PBM E-score” value: -0.11 for the first, -0.0642 for the second.

Compared with CATCGAGG, GTGCTCAA is higher in “PBM E-score” value: -0.23 for the first, -0.0795 for the second.

Going from ACCCACTA to TAGGGTAA, the “PBM E-score” value falls from 0.0583 to -0.0125.

Going from ACGTGAAA to ATCATGAT, the “PBM E-score” value falls from -0.127 to -0.245.

Compared with CGCCATTC, CCGTAGTC is higher in “PBM E-score” value: 0.142 for the first, 0.229 for the second.

First: GAATGAGC
Second: GAGCTGGC
The “PBM E-score” value of the first is higher: -0.029 for the first, -0.0387 for the second.

First: GAGGACGC
Second: ATTGTGGC
The “PBM E-score” value of the first is higher: -0.0224 for the first, -0.159 for the second.

First: AAACCTCA
Second: AAACGACC
The “PBM E-score” value of the first is higher: 0.00633 for the first, -0.0384 for the second.

First: CGTCCAGC
Second: GCATGAGC
The “PBM E-score” value of the first is higher: -0.105 for the first, -0.181 for the second.

Going from ACACAGGA to AAAACAGC, the “PBM E-score” value rises from -0.16 to -0.0169.

Compared with CCCCGGTA, CACCCCCC is lower in “PBM E-score” value: 0.334 for the first, -0.0694 for the second.

Going from ATATCCGA to AGTATCCG, the “PBM E-score” value falls from 0.463 to 0.284.

Going from ACGGAGTC to AACCCTAG, the “PBM E-score” value falls from 0.149 to -0.19.

Compared with TGTCGCAA, GTCCGATA is higher in “PBM E-score” value: -0.0577 for the first, 0.463 for the second.

Going from CACGGACC to ATTCCTGA, the “PBM E-score” value falls from 0.341 to -0.207.

Going from AAATGACA to CTGCTACA, the “PBM E-score” value rises from -0.215 to 0.0385.

First: CGCGGAGA
Second: CCGTGTCA
The “PBM E-score” value of the first is higher: 0.397 for the first, 0.148 for the second.

Going from TCGACTAA to CAAACTTC, the “PBM E-score” value rises from -0.221 to -0.105.

Going from AGGTACTA to CCCTGGGC, the “PBM E-score” value falls from -0.173 to -0.21.

Compared with CCGGGGCC, CCCCCCCC is lower in “PBM E-score” value: 0.318 for the first, -0.27 for the second.

First: TCGAGACA
Second: CATGACTA
The “PBM E-score” value of the first is higher: -0.142 for the first, -0.314 for the second.

Going from AATTAATG to ACCTATCC, the “PBM E-score” value falls from 0.175 to -0.0245.

Going from ACTTGTGG to CACTTAGC, the “PBM E-score” value rises from -0.104 to -0.0802.

Compared with CCTGTTCA, AAATTTTC is higher in “PBM E-score” value: -0.14 for the first, 0.129 for the second.

First: AAGGATCG
Second: CCCACAAG
The “PBM E-score” value of the first is lower: -0.0469 for the first, -0.0447 for the second.

First: CAAGGAGC
Second: TACACGTA
The “PBM E-score” value of the first is lower: -0.223 for the first, -0.101 for the second.

Going from AATGAGGT to CGTCATCA, the “PBM E-score” value falls from -0.0681 to -0.316.

Going from CCCTACAC to ATAATAGC, the “PBM E-score” value rises from -0.00701 to 0.0944.

Compared with CAACGCAC, CTAGTCTC is lower in “PBM E-score” value: -0.093 for the first, -0.111 for the second.

Compared with ATTTCTGG, ATCTCGAA is higher in “PBM E-score” value: -0.13 for the first, -0.0439 for the second.

Compared with GGAGGATA, CTGTGAGC is lower in “PBM E-score” value: -0.0622 for the first, -0.109 for the second.

Going from ATTTAAGG to TGAGGGAA, the “PBM E-score” value falls from -0.00117 to -0.257.

Compared with AATCATGG, AATAGTCA is lower in “PBM E-score” value: -0.0861 for the first, -0.0935 for the second.

Compared with AGCAGGCC, AACGTCTC is higher in “PBM E-score” value: -0.189 for the first, -0.134 for the second.

First: CTACGCTA
Second: GCTCCAAA
The “PBM E-score” value of the first is lower: -0.136 for the first, -0.11 for the second.

First: ATTAATAA
Second: ATCTCCGG
The “PBM E-score” value of the first is lower: 0.171 for the first, 0.483 for the second.

Going from ATCCTATG to AACGAGCA, the “PBM E-score” value falls from -0.0393 to -0.222.

Going from CCAAAAGC to CAGGCATC, the “PBM E-score” value falls from 0.0517 to -0.222.

Compared with AGCATACC, AGGATTAT is higher in “PBM E-score” value: -0.166 for the first, 0.0353 for the second.

First: ACAACTCG
Second: ATCGAACC
The “PBM E-score” value of the first is lower: 0.0678 for the first, 0.0819 for the second.

Compared with ACAGTACC, CGGATGGA is higher in “PBM E-score” value: -0.151 for the first, 0.238 for the second.

Compared with GCCTTATA, AATGATCT is lower in “PBM E-score” value: 0.101 for the first, -0.0929 for the second.

Compared with AATATGTG, CGTCAAAG is lower in “PBM E-score” value: 0.0292 for the first, -0.213 for the second.
